From PubChem BioAssay AID2202238 (Ras Initiative Chemistry Research Team, Frederick National …, 2025)
This is one part of the list. The main result of the screen is listed elsewhere. These columns were measured beside it and carry no call.

Biological target: GTPase KRas (Homo sapiens) (UniProt P01116)
Test: Cysteine mutants labelled by reactive fragments (mass read-out) (AID 2202238)
Design: protein at 5 µM with 500 µM competing thiol for 1.5 h
Conditions: KRAS G12D cysteine mutants, disulfide tethering, MALDI-TOF labeling, stronger effect = higher value, fragment at 500 µM
[1] = measured here: G75C mutant labeling
[2] = measured here: H94C mutant labeling
[3] = measured here: I36C mutant labeling
[4] = measured here: L120C mutant labeling
[5] = measured here: M67C mutant labeling
[6] = measured here: M72C mutant labeling
[7] = measured here: N86C mutant labeling
[8] = measured here: P121C mutant labeling
[9] = measured here: S122C mutant labeling
[10] = measured here: S136C mutant labeling
[11] = measured here: G60C mutant labeling
[12] = measured here: N26C mutant labeling

Chain of UniProt P01116 (P01116 whole entry, looked up, the tested form may be a part): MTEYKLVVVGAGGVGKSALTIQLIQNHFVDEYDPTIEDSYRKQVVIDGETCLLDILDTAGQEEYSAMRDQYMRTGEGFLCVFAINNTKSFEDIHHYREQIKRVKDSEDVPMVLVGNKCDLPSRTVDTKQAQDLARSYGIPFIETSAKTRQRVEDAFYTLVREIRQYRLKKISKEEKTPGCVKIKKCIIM

| SMILES | percent labeling [1] | percent labeling [2] | percent labeling [3] | percent labeling [4] | percent labeling [5] | percent labeling [6] | percent labeling [7] | percent labeling [8] | percent labeling [9] | percent labeling [10] | percent labeling [11] | percent labeling [12] |
| --- | --- | --- | --- | --- | --- | --- | --- | --- | --- | --- | --- | --- |
| Cc1sc(NC(=O)CCS)nc1-c1ccccc1 | 17.4% | 17.6% | 16.6% | 15.8% | 16.3% | 44.2% | 16.5% | 15.1% | 12.1% | 42.6% |  |  |
| CC(C)c1cccc(N2CC(C(=O)NCCS)CC2=O)c1 (stereo not drawn) | 23.7% | 31.6% | 21.2% | 32.5% | 22.6% | 32.7% | 20.4% | 25.7% | 22.1% | 35.8% | 34.3% | 37.2% |
| N#Cc1cn(CC(F)(F)F)nc1NC(=O)CCS | 17.3% | 35.3% | 37.6% | 34.2% | 36.2% | 24.8% | 30.3% | 32.9% | 34.5% | 45.9% |  |  |
| O=C(CCS)NCCc1cnc(SC2CCCC2)nc1 | 16.1% | 43.2% | 35.9% | 23.8% | 34.9% | 36.1% | 27% | 31.4% | 23.1% | 48.6% |  |  |
| O=C(CCS)NCc1cn2c(n1)CCCC2 | 13.3% | 22.4% | 34.8% | 29.6% | 36.3% | 22.3% | 18% | 28% | 26.9% | 48% |  |  |
| CC(c1ccccc1)c1cc(C(=O)NCCS)n[nH]1 (stereo not drawn) | 17.6% | 17.5% | 13.6% | 27.5% | 21.5% | 59.3% | 16.2% | 15.5% | 13.1% | 31.5% | 23.6% | 28.1% |
| Cc1nc(C(=O)NCCS)nn1-c1n[nH]c(C(F)(F)F)n1 | 12.3% | 27.1% | 17.3% | 55.9% | 20.6% | 19.1% | 27.5% | 34.4% | 36.3% | 30.7% | 22.2% | 37.6% |
| O=C(CCS)Nc1cccc(NC(=O)c2ccc3c(c2)OCO3)c1 | 3.8% | 6.3% | 12.6% | 4.3% | 5.9% | 21.2% | 0% | 2.4% | 3.3% | 12% |  |  |
| O=C(CCS)NC1(c2noc(-c3cccnc3)n2)CCCCCC1 | 14.8% | 39% | 35.1% | 28.7% | 38.3% | 32.5% | 24.5% | 34.3% | 28.6% | 56.7% |  |  |
| O=C(COc1cccc(N2CCCC2=O)c1)NCCS | 22.1% | 33.6% | 25.4% | 44.5% | 32.8% | 32.5% | 25.8% | 32.5% | 33.6% | 46.6% | 33.7% | 45.6% |
| Cn1cc(-c2cccc(C(=O)NCCS)c2)cn1 | 15.4% | 28.3% | 9.6% | 31.9% | 24.6% | 58.8% | 24.1% | 18.3% | 18.8% | 39.3% | 32.1% | 55.9% |
| O=C(NCCS)c1oc2ccccc2c1COc1ccccc1 | 17.6% | 19.4% | 14.7% | 14.8% | 8.2% | 47.6% | 11.3% | 12.9% | 5.4% | 12.4% | 36.6% | 21.8% |
| O=C(NCCS)c1cc2sc3ccccc3c2s1 | 4.7% | 8.3% | 8.9% | 14.2% | 7.5% | 63.8% | 9% | 8.8% | 8.6% | 14.8% | 23.6% | 15.6% |
| COc1ccc2cc(C(=O)NCCS)n(C)c2c1 | 13.6% | 9.2% | 6.6% | 8.7% | 6% | 45.3% | 7.5% | 8.6% | 8.6% | 14.9% | 10.4% | 37.9% |
| O=C(NCCS)c1cnn(-c2ncccc2Cl)c1C(F)(F)F | 27.9% | 32.9% | 22.2% | 23.6% | 25% | 47.2% | 31.6% | 21.3% | 22.5% | 43.6% | 60.6% | 27.3% |
| O=C1CC2(CCOC2)C(C(=O)NCCS)CN1 (stereo not drawn) | 5.9% | 22.7% | 22.5% | 24.6% | 23.3% | 6.9% | 26.1% | 27.4% | 25.6% | 31% | 14.2% | 27.2% |
| O=C(NCCS)c1ccn(-c2ccc(Cl)cc2Cl)n1 | 9.3% | 13.5% | 9.9% | 14.8% | 10.4% | 34% | 10% | 12.1% | 6.9% | 16.1% | 20.1% | 24.9% |
| Cc1cccc(C)c1-n1nnnc1CNC(=O)CCS | 13.2% | 37% | 45.9% | 33.2% | 36.1% | 50.9% | 38.5% | 36.9% | 39.9% | 62.1% |  |  |
| O=C(CCCOc1ccc2c(c1)CCC(=O)N2)NCCS | 16.1% | 36.9% | 37% | 33.7% | 34.8% | 50.1% | 24.1% | 32.5% | 27.9% | 43.3% | 47.5% | 48.2% |
| Cn1cc(C(=O)NCCS)c2c(c1=O)CCCC2 | 19.6% | 36.4% | 27.6% | 39.3% | 38.6% | 64.2% | 30.8% | 37.5% | 34.5% | 56.9% | 45% | 51.3% |
| O=C1CC(C(F)(F)F)C(C(=O)NCCS)N1 (stereo not drawn) | 12.1% | 26.3% | 25.6% | 26.7% | 23.9% | 12.7% | 24.6% | 30.6% | 27.5% | 34.9% | 24.8% | 32.1% |
| O=C(CCS)NCc1conc1C1CCC1 | 16.2% | 37.6% | 39.6% | 28.7% | 35.3% | 34% | 26.9% | 38.3% | 33.7% | 51.9% |  |  |
| O=C(CCS)NCc1ccncc1OCC(F)(F)F | 12.9% | 35.8% | 31.2% | 29.8% | 34.9% | 27.3% | 20.6% | 30.1% | 30.9% | 41.8% |  |  |

| SMILES | percent labeling [1] | percent labeling [2] | percent labeling [3] | percent labeling [4] | percent labeling [5] | percent labeling [6] | percent labeling [7] | percent labeling [8] | percent labeling [9] | percent labeling [10] | percent labeling [11] | percent labeling [12] |
| --- | --- | --- | --- | --- | --- | --- | --- | --- | --- | --- | --- | --- |
| COCCC1(c2nc(C)no2)CCN(C(=O)CCS)CC1 | 8.8% | 28.3% | 35% | 31.6% | 33.3% | 16% | 18.4% | 29.8% | 31.5% | 53.4% |  |  |
| O=C(CCS)NC1(c2ccc(Br)cn2)CCC1 | 20.1% | 46.6% | 44.5% | 33.9% | 40.5% | 38.2% | 44% | 35.5% | 32.1% | 58.3% |  |  |
| O=C(CCS)NCc1nnc(-c2ccncc2F)s1 | 10.9% | 31.9% | 38.6% | 33.3% | 48.2% | 28.2% | 20.2% | 27.2% | 25.8% | 45.7% |  |  |
| CCc1occ(C(F)(F)F)c1C(=O)NCCS | 14.6% | 32.4% | 14.3% | 21.7% | 17.7% | 19.8% | 31.5% | 18.6% | 19.7% | 23.8% | 49.2% | 28.6% |
| Cc1nc2c(c(C(F)(F)F)n1)CC(C(=O)NCCS)CC2 (stereo not drawn) | 25.3% | 38.2% | 28% | 37.6% | 43.2% | 26.7% | 26.1% | 33.7% | 27% | 53.6% | 48.3% | 42.7% |
| CN(C(=O)CCS)C(Cc1ccc(F)cc1)c1ccn(C)n1 (stereo not drawn) | 17.5% | 44.4% | 37.2% | 32.7% | 52.1% | 49.5% | 28.4% | 32.8% | 34.3% | 62.9% |  |  |
| CS(=O)(=O)Cc1n[nH]c(CNC(=O)CCS)n1 | 12.3% | 27.2% | 33.4% | 31.5% | 25.8% | 13.9% | 15.4% | 31.5% | 34.8% | 37.9% |  |  |
| O=C(CCS)Nc1cc(F)c(-n2ccnc2)c(F)c1 | 16.7% | 26.5% | 33.9% | 24.5% | 41.8% | 60.6% | 16.6% | 25.9% | 19.4% | 32.1% |  |  |
| O=C(NCCS)c1cnn(-c2ccccc2F)c1 | 20.5% | 22.8% | 14% | 20.3% | 19.7% | 55.7% | 17.3% | 34.8% | 11.9% | 40% | 27.2% | 40.7% |
| Cc1cc(CNC(=O)CCS)cc(N2CCCC2)n1 | 15.2% | 35.6% | 44.8% | 24% | 58.4% | 27.4% | 14.1% | 27.2% | 25.4% | 54.6% |  |  |
| O=C(NCCS)c1cc(Br)n2c1CCC2 | 11.4% | 33.9% | 17.7% | 28.1% | 20.4% | 37.1% | 20.7% | 19.2% | 16% | 29.3% | 48.6% | 28.5% |
| Cn1cc(Br)cc1C(=O)NCCS | 18.6% | 34% | 18.8% | 24.1% | 16.4% | 37.1% | 10.6% | 22.1% | 17.1% | 27.6% | 55.5% | 41.9% |
| Cc1ccc(CN(C(=O)CCS)c2ccc3[nH]c(=O)[nH]c3c2)cc1 | 21.9% | 42.9% | 29% | 23.7% | 29.3% | 43.4% | 25.3% | 21.9% | 14.6% | 46.1% |  |  |
| CN(C)C(=O)COc1ccccc1C(=O)NCCS | 12.6% | 47.8% | 23% | 48.2% | 37.2% | 43.7% | 25.3% | 29.6% | 33.2% | 51.4% | 34.2% | 36.2% |
| CCn1nccc1CN(CCO)C(=O)CCS | 8.4% | 27.8% | 27.4% | 24.8% | 29.7% | 15.5% | 18.5% | 36% | 30.7% | 46.1% |  |  |
| Cc1cccc(Nc2ccccc2C(=O)NCCS)c1C | 16% | 23% | 13.9% | 22% | 12.4% | 60.5% | 14.1% | 17.3% | 8% | 15.2% | 44.8% | 23.5% |
| Cc1csc(-c2ccc(C(=O)NCCS)cc2)n1 | 13.2% | 15.7% | 11.7% | 21.1% | 13.2% | 61.6% | 14.9% | 15.9% | 11% | 20.8% | 21.2% | 29.3% |
| O=C(CCS)Nc1cccc(CN2C(=O)CNC2=O)c1 | 17% | 43% | 42.5% | 38.5% | 34.3% | 42.7% | 54.2% | 33% | 36.6% | 53.9% |  |  |
| NC(=O)Cc1cc(Br)c(-c2ccc(NC(=O)CCS)cc2)s1 | 23% | 11.2% | 21.9% | 6.5% | 5.6% | 75.2% | 15.2% | 7.1% | 5.5% | 17.9% |  |  |
| CC(C)C(NC(=O)Cc1ccccc1)C(=O)NCCS (stereo not drawn) | 10.6% | 31.9% | 25.5% | 39.5% | 30.6% | 20.3% | 20.3% | 32.8% | 31.3% | 44.7% | 40.6% | 34.3% |
| O=C(Nc1sc2c(c1C(=O)NCCS)CCC2)c1ccco1 | 5.1% | 10.2% | 0% | 3.9% | 5.1% | 6.8% | 5% | 3.8% | 0% | 3.9% | 10.3% | 7.2% |
| O=C(CCS)NCC1(O)CCC2(CC1)OCCO2 | 0% | 7.4% | 5.2% | 10.1% | 7.3% | 3% | 2.6% | 10.3% | 12.4% | 13.3% |  |  |
| O=C(CCS)N1CCn2c(nc3c2CCCC3)C1 | 17.9% | 25% | 42.5% | 31% | 37.3% | 25.7% | 15.1% | 30.4% | 34% | 63% |  |  |
